Laboratory results reported in the supplement of paper PMC4967469.
By IC50 is meant the dose at which the fit gives 50% viability; fits outside the tested doses are given as limits. For AUC the same curve is integrated over the 256-fold range of doses and scaled to a fraction; the more sensitive the line, the further below 1. For some of these results: The top dose, if marked as inferred, was derived from the fitted curves, not read from the paper.

Assays:
Assay in all cases: Viability of human cancer cell lines after 72 h of drug (GDSC screen)
Lenalidomide = compound: Nc1cccc2c1CN(C1CCC(=O)NC1=O)C2=O [Lenalidomide]; settings: top dose 5 µM; top dose inferred
Protocol: (§1)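 Human cancer cell lines in 384-well plates, medium with 10% serum, drug for 72 h over a 256-fold dose range (nine 2-fold or five 4-fold steps up to the top dose). Adherent lines were fixed and stained with the nucleic acid dye Syto60, suspension lines read with resazurin; signal relative to control wells, capped at 0 and 100%. One two-parameter sigmoid per drug and line, fitted in a mixed model over all curves with the slope shared within a line.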

SGC0946 = compound: CC(C)N(CCCNC(=O)Nc1ccc(C(C)(C)C)cc1)C[C@H]1O[C@@H](n2cc(Br)c3c(N)ncnc32)[C@H](O)[C@@H]1O [SGC0946]; settings: top dose 0.5 µM; top dose inferred
Protocol: as §1

VX-680 = compound: Cc1cc(Nc2cc(N3CCN(C)CC3)nc(Sc3ccc(NC(=O)C4CC4)cc3)n2)n[nH]1 [VX-680]; settings: top dose 2 µM
Protocol: as §1

GW-2580 = compound: COc1ccc(COc2ccc(Cc3cnc(N)nc3N)cc2OC)cc1 [GW-2580]; settings: top dose 20 µM; top dose inferred
Protocol: as §1

Bryostatin 1 = compound: CCC/C=C/C=C/C(=O)O[C@H]1/C(=C/C(=O)OC)C[C@H]2C[C@H]([C@@H](C)O)OC(=O)C[C@H](O)C[C@@H]3C[C@H](OC(C)=O)C(C)(C)[C@](O)(C[C@@H]4C/C(=C/C(=O)OC)C[C@H](/C=C/C(C)(C)[C@]1(O)O2)O4)O3 [Bryostatin 1]; settings: top dose 0.008 µM; top dose inferred
Protocol: as §1

Cell Line	AUC (Lenalidomide)	IC50 (Lenalidomide) [µM]	AUC (SGC0946)	IC50 (SGC0946) [µM]	AUC (VX-680)	IC50 (VX-680) [µM]	AUC (GW-2580)	IC50 (GW-2580) [µM]	AUC (Bryostatin 1)	IC50 (Bryostatin 1) [µM]
A3-KAW (B-cell lymphoma, suspension)	0.992	> 5	0.992	> 0.5	0.943	> 2	0.992	> 20	0.987	> 0.008
A4-Fuk (B-cell lymphoma, suspension)	0.901	> 5	0.984	> 0.5	0.523	0.145	0.986	> 20	0.974	> 0.008
A253 (head and neck, adherent)	0.989	> 5	0.988	> 0.5	0.97	> 2	0.986	> 20	0.89	> 0.008
A388 (skin, adherent)	0.974	> 5	0.981	> 0.5	0.635	0.313	0.976	> 20	0.967	> 0.008
ALL-PO (lymphoblastic leukaemia, suspension)	0.871	> 5	0.981	> 0.5	0.587	0.219	0.929	> 20	0.98	> 0.008
ALL-SIL (T-cell leukaemia, suspension)	0.986	> 5	0.988	> 0.5	0.196	0.0186	0.989	> 20	0.989	> 0.008
AM-38 (glioma, semi-adherent)	0.981	> 5	0.985	> 0.5	0.988	> 2	0.987	> 20	0.986	> 0.008
AMO-1 (haematopoietic neoplasm, suspension)	0.984	> 5	0.981	> 0.5	0.915	> 2	0.945	> 20	0.986	> 0.008
ARH-77 (myeloma, suspension)	0.967	> 5	0.983	> 0.5	0.958	> 2	0.987	> 20	0.987	> 0.008
BC-1 (B-cell lymphoma, suspension)	0.985	> 5	0.98	> 0.5	0.967	> 2	0.931	> 20	0.991	> 0.008
BE2-M17 (neuroblastoma, adherent)	0.987	> 5	0.985	> 0.5	0.9	> 2	0.981	> 20	0.987	> 0.008
BE-13 (lymphoblastic leukaemia, suspension)	0.982	> 5	0.986	> 0.5	0.372	0.0567	0.975	> 20	0.975	> 0.008
BL-41 (Burkitt lymphoma, suspension)	0.994	> 5	0.987	> 0.5	0.49	0.118	0.994	> 20	0.975	> 0.008
BV-173 (chronic myeloid leukaemia, suspension)	0.944	> 5	0.982	> 0.5	0.439	0.087	0.989	> 20	0.973	> 0.008
C2BBe1 (large intestine, adherent)	0.98	> 5	0.982	> 0.5	0.981	> 2	0.984	> 20	0.984	> 0.008
CA46 (Burkitt lymphoma, suspension)	0.984	> 5	0.979	> 0.5	0.957	> 2	0.983	> 20	0.985	> 0.008
CHP-126 (neuroblastoma, suspension)	0.984	> 5	0.968	> 0.5	0.94	> 2	0.987	> 20	0.985	> 0.008
CL-11 (large intestine, adherent)	0.984	> 5	0.976	> 0.5	0.966	> 2	0.976	> 20	0.987	> 0.008
COLO-320-HSR (large intestine, suspension)	0.988	> 5	0.99	> 0.5	0.957	> 2	0.989	> 20	0.989	> 0.008
COLO-684 (endometrium, suspension)	0.984	> 5	0.979	> 0.5	0.875	> 2	0.985	> 20	0.973	> 0.008
COR-L95 (small cell lung carcinoma, adherent)	0.987	> 5	0.985	> 0.5	0.98	> 2	0.965	> 20	0.984	> 0.008
COR-L279 (small cell lung carcinoma, suspension)	0.99	> 5	0.989	> 0.5	0.888	1.84	0.921	> 20	0.99	> 0.008
D-263MG (glioma, adherent)	0.971	> 5	0.98	> 0.5	0.982	> 2	0.983	> 20	0.944	> 0.008
D-283MED (medulloblastoma, adherent)	0.972	> 5	0.99	> 0.5	0.99	> 2	0.988	> 20	0.991	> 0.008
DJM-1 (skin, adherent)	0.968	> 5	0.987	> 0.5	0.88	> 2	0.988	> 20	0.987	> 0.008

Cell Line	AUC (Lenalidomide)	IC50 (Lenalidomide) [µM]	AUC (SGC0946)	IC50 (SGC0946) [µM]	AUC (VX-680)	IC50 (VX-680) [µM]	AUC (GW-2580)	IC50 (GW-2580) [µM]	AUC (Bryostatin 1)	IC50 (Bryostatin 1) [µM]
DMS-114 (small cell lung carcinoma, adherent)	0.985	> 5	0.983	> 0.5	0.95	> 2	0.965	> 20	0.977	> 0.008
EB2 (Burkitt lymphoma, suspension)	0.99	> 5	0.989	> 0.5	0.99	> 2	0.982	> 20	0.99	> 0.008
EB-3 (Burkitt lymphoma, suspension)	0.984	> 5	0.975	> 0.5	0.966	> 2	0.973	> 20	0.982	> 0.008
EC-GI-10 (oesophagus, adherent)	0.988	> 5	0.987	> 0.5	0.988	> 2	0.981	> 20	0.988	> 0.008
EM-2 (chronic myeloid leukaemia, suspension)	0.97	> 5	0.979	> 0.5	0.633	0.305	0.982	> 20	0.973	> 0.008
ES1 (Ewing sarcoma, adherent)	0.972	> 5	0.984	> 0.5	0.883	> 2	0.982	> 20	0.973	> 0.008
ES4 (Ewing sarcoma, adherent)	0.969	> 5	0.98	> 0.5	0.74	0.682	0.98	> 20	0.982	> 0.008
ES5 (Ewing sarcoma, adherent)	0.979	> 5	0.981	> 0.5	0.977	> 2	0.969	> 20	0.982	> 0.008
ES7 (Ewing sarcoma, adherent)	0.984	> 5	0.982	> 0.5	0.981	> 2	0.979	> 20	0.983	> 0.008
ES8 (Ewing sarcoma, adherent)	0.98	> 5	0.986	> 0.5	0.215	0.0198	0.985	> 20	0.976	> 0.008
EW-3 (Ewing sarcoma, adherent)	0.978	> 5	0.971	> 0.5	0.96	> 2	0.984	> 20	0.98	> 0.008
EW-11 (Ewing sarcoma, adherent)	0.96	> 5	0.943	> 0.5	0.981	> 2	0.981	> 20	0.955	> 0.008
EW-13 (Ewing sarcoma, suspension)	0.98	> 5	0.984	> 0.5	0.976	> 2	0.963	> 20	0.922	> 0.008
EW-16 (Ewing sarcoma, adherent)	0.937	> 5	0.98	> 0.5	0.448	0.0894	0.985	> 20	0.969	> 0.008
EW-18 (Ewing sarcoma, suspension)	0.956	> 5	0.981	> 0.5	0.986	> 2	0.986	> 20	0.977	> 0.008
EW-24 (Ewing sarcoma, semi-adherent)	0.986	> 5	0.971	> 0.5	0.99	> 2	0.992	> 20	0.992	> 0.008
EoL-1-cell (haematopoietic neoplasm, suspension)	0.972	> 5	0.978	> 0.5	0.615	0.248	0.975	> 20	0.922	> 0.008
Farage (B-cell lymphoma, suspension)	0.987	> 5	0.982	> 0.5	0.911	1.95	0.993	> 20	0.947	> 0.008
GB-1 (glioma, adherent)	0.955	> 5	0.98	> 0.5	0.833	1.63	0.932	> 20	0.98	> 0.008
GDM-1 (acute myeloid leukaemia, suspension)	0.987	> 5	0.986	> 0.5	0.383	0.0605	0.191	0.158	0.948	> 0.008
GI-1 (glioma, adherent)	0.987	> 5	0.984	> 0.5	0.918	> 2	0.986	> 20	0.931	> 0.008
GOTO (neuroblastoma, adherent)	0.984	> 5	0.981	> 0.5	0.935	> 2	0.97	> 20	0.984	> 0.008
GR-ST (lymphoblastic leukaemia, suspension)	0.959	> 5	0.978	> 0.5	0.941	> 2	0.97	> 20	0.979	> 0.008
GRANTA-519 (B-cell lymphoma, suspension)	0.991	> 5	0.99	> 0.5	0.935	> 2	0.97	> 20	0.988	> 0.008
